Test results from the supplement of paper PMC3334620.
Whole data set: some 33,000 sequences, median “E-score (-0.5 to 0.5)” near -0.041, cut for the highest 2% near 0.37. Some of the results follow.

target: T1, Ecm22 (UniProt Q05958); experiment: PBM E-score (8-mer binding enrichment) (E-score (-0.5 to 0.5)); higher = stronger / more preferred TF binding; most listed sequences are background and not binding sites; details: protein concentration: 200 nM; construct: GST-full length
T1 sequence: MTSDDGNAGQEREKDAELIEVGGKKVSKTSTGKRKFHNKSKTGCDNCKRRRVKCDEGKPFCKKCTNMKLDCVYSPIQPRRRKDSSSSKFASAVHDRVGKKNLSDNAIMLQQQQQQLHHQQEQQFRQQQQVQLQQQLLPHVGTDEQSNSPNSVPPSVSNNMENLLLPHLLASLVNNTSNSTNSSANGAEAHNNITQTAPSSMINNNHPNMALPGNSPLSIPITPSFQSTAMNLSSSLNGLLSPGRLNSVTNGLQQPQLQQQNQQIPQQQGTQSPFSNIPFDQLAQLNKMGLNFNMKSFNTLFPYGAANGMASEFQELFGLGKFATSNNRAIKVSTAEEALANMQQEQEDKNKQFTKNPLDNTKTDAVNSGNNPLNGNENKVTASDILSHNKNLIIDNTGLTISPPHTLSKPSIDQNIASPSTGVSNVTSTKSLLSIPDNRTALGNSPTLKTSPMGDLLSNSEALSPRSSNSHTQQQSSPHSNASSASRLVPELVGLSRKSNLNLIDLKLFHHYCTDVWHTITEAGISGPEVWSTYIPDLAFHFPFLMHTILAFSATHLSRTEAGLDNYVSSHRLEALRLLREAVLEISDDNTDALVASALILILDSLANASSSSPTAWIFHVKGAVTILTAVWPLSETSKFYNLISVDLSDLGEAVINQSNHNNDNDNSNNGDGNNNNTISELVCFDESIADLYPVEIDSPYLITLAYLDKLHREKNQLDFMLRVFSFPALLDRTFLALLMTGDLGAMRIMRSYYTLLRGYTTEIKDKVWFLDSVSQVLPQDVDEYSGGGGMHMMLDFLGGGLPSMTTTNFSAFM
Summary of the method: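 Detection of bound protein used fluorescent anti-GST, with scans normalised by masliner. The proteins were GST-tagged yeast transcription factors applied at about 100-200 nM to universal all-10-mer Agilent arrays made double-stranded by primer extension. Each ungapped eight-base word, pooled with its reverse complement, was scored with an E-score from the Universal PBM Analysis Suite.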

Compared with ATTTTTTG, AGTGGCAA is higher in “PBM E-score” value: -0.16 for the first, -0.103 for the second.

Compared with ATAAGTCG, AACCCTCC is lower in “PBM E-score” value: 0.144 for the first, -0.228 for the second.

Compared with ACGAGCGA, GACTACAA is lower in “PBM E-score” value: 0.409 for the first, -0.102 for the second.

First: CGCAGATA
Second: ATCTCGAC
The “PBM E-score” value of the first is lower: -0.117 for the first, 0.0736 for the second.

First: GAATGGCA
Second: CAGGAGGA
The “PBM E-score” value of the first is lower: -0.17 for the first, -0.14 for the second.

Going from GTATCTAA to TAACGAAA, the “PBM E-score” value rises from 0.0769 to 0.296.

Going from AGGCAGTA to GGCAACAC, the “PBM E-score” value falls from -0.0211 to -0.266.

Compared with ACAAAAAC, GAACATAC is higher in “PBM E-score” value: 0.129 for the first, 0.166 for the second.

Going from TCCGTACA to AGTCGTTA, the “PBM E-score” value falls from 0.379 to 0.273.

Going from ACGGTGTA to CGTCCCCC, the “PBM E-score” value falls from 0.299 to -0.206.

Going from ATAATCGG to ATCTGATG, the “PBM E-score” value falls from 0.154 to -0.133.

First: ATACCATC
Second: CCTTGTTA
The “PBM E-score” value of the first is lower: -0.0524 for the first, -0.0411 for the second.

Compared with GCGGAAAC, GAGCGATA is higher in “PBM E-score” value: -0.0743 for the first, 0.24 for the second.

First: ACAGTGCG
Second: ACTCCTCG
The “PBM E-score” value of the first is lower: -0.0346 for the first, 0.338 for the second.

Compared with GCGCACAA, AAGAATAT is lower in “PBM E-score” value: 0.144 for the first, -0.113 for the second.

Compared with CTAGTTGC, ATTCCTAA is higher in “PBM E-score” value: -0.155 for the first, 0.0821 for the second.

Going from CTCTGCAA to TGTCATAA, the “PBM E-score” value rises from -0.107 to 0.0952.

GCGACTCC and GATCAAAA are the same in “PBM E-score” value: -0.049 for the first, -0.049 for the second.

Compared with CGACGTTC, AAACGAAG is higher in “PBM E-score” value: 0.192 for the first, 0.457 for the second.

Compared with GTGCGCCA, GTAAAAAA is higher in “PBM E-score” value: -0.0489 for the first, 0.0457 for the second.

First: TGGCTAAA
Second: AACTCTTG
The “PBM E-score” value of the first is higher: -0.126 for the first, -0.214 for the second.

First: AGTCTGGG
Second: AACACGGC
The “PBM E-score” value of the first is higher: -0.113 for the first, -0.222 for the second.

Going from AGACAGAT to AGATGGGA, the “PBM E-score” value falls from -0.115 to -0.224.

Going from AGTCGATA to AGCAATGC, the “PBM E-score” value falls from 0.0979 to 0.0115.

Going from ATAAGGCC to ACCAGTCT, the “PBM E-score” value rises from -0.15 to -0.0118.

First: CACTAATG
Second: ACGTCTGG
The “PBM E-score” value of the first is higher: 0.0296 for the first, -0.11 for the second.

First: AAGTATAC
Second: GTGACGCA
The “PBM E-score” value of the first is higher: 0.255 for the first, -0.0738 for the second.

Compared with ACTTGAAC, ACTCCCCC is lower in “PBM E-score” value: 0.118 for the first, -0.134 for the second.

First: CGTCTCTC
Second: ACCGGTTG
The “PBM E-score” value of the first is higher: 0.126 for the first, 0.111 for the second.

Compared with ACTCTTCA, CATAATGG is lower in “PBM E-score” value: 0.0478 for the first, -0.242 for the second.

Compared with GTCGAATA, GATATGAA is lower in “PBM E-score” value: 0.173 for the first, -0.0143 for the second.

Compared with AGACGGAG, ATACGCTA is higher in “PBM E-score” value: -0.0869 for the first, 0.272 for the second.

First: CCGTTACC
Second: CACAGCGA
The “PBM E-score” value of the first is higher: 0.122 for the first, 0.111 for the second.

First: ATTATGTA
Second: ATCTTAGA
The “PBM E-score” value of the first is higher: 0.139 for the first, -0.0556 for the second.

First: CCCCAGGG
Second: TAGAGAGA
The “PBM E-score” value of the first is higher: -0.0745 for the first, -0.134 for the second.

Going from GTGATAAC to ACAAATCA, the “PBM E-score” value rises from -0.179 to 0.00407.

Compared with AGAGATGG, GGATCACA is higher in “PBM E-score” value: -0.121 for the first, -0.0526 for the second.

Compared with CACCGCCA, GCGTCGCC is lower in “PBM E-score” value: 0.00889 for the first, -0.00519 for the second.

Compared with CAATTGCC, ATGCCCAC is higher in “PBM E-score” value: -0.216 for the first, -0.0975 for the second.

First: CGGTTCTA
Second: CTCCAACC
The “PBM E-score” value of the first is higher: 0.00268 for the first, -0.0849 for the second.

Going from CTCGAAAA to CAAAAACG, the “PBM E-score” value rises from -0.0476 to 0.141.

Compared with CGGGGGCA, CAACCAAG is higher in “PBM E-score” value: -0.133 for the first, -0.124 for the second.

Compared with AAGCCCGG, CGCTCATA is higher in “PBM E-score” value: -0.0641 for the first, 0.182 for the second.

Going from AGATACCC to GACGAATC, the “PBM E-score” value rises from -0.0326 to 0.106.

Compared with AGTAACAG, GAACGATA is higher in “PBM E-score” value: -0.072 for the first, 0.416 for the second.

Compared with ACATGAGC, CAGACCCC is lower in “PBM E-score” value: -0.0386 for the first, -0.411 for the second.

First: ACCTCTGG
Second: AAACCCTA
The “PBM E-score” value of the first is higher: -0.156 for the first, -0.258 for the second.

First: CGGAGCAC
Second: CGCAAGGC
The “PBM E-score” value of the first is lower: -0.0149 for the first, -0.00088 for the second.

First: ATCCTACA
Second: ATCATGCG
The “PBM E-score” value of the first is lower: -0.0936 for the first, 0.0546 for the second.

First: CGCGGGTC
Second: ATTCAAAG
The “PBM E-score” value of the first is higher: 0.0392 for the first, -0.0723 for the second.

Going from ACGGGGAG to CGTAACAG, the “PBM E-score” value rises from 0.145 to 0.26.

Going from CCTTAGTA to CAACGACA, the “PBM E-score” value rises from -0.147 to 0.346.

Going from AACTCCGC to CAGACCTA, the “PBM E-score” value rises from -0.137 to -0.112.

Going from AAATTCAC to AGTTCGAG, the “PBM E-score” value rises from -0.0299 to 0.0719.

First: TGGTTGAA
Second: GGCTAAAC
The “PBM E-score” value of the first is lower: -0.234 for the first, 0.18 for the second.

First: GATAAATA
Second: CACCGAAG
The “PBM E-score” value of the first is higher: 0.103 for the first, 0.0771 for the second.

Going from ATGATCCC to AACGTCAC, the “PBM E-score” value rises from -0.149 to -0.0666.

First: GGATTATA
Second: GGGCGCAA
The “PBM E-score” value of the first is higher: 0.0814 for the first, -0.104 for the second.

Compared with AACTGTAC, GTGAATCA is lower in “PBM E-score” value: 0.265 for the first, -0.258 for the second.

Compared with AGACGTCT, AAATGTGT is higher in “PBM E-score” value: -0.216 for the first, -0.0398 for the second.

Compared with CTGATGTA, TCAATGCA is lower in “PBM E-score” value: -0.0454 for the first, -0.111 for the second.

Compared with AGCGAATA, ACCTTGAG is lower in “PBM E-score” value: 0.222 for the first, -0.235 for the second.

Going from GAACAGTA to GGGTAAAC, the “PBM E-score” value rises from 0.141 to 0.225.

Compared with CAGAATGG, ACCAGGGT is lower in “PBM E-score” value: -0.0638 for the first, -0.114 for the second.

Going from GTTATACA to CCGGCCCC, the “PBM E-score” value falls from 0.0733 to -0.0251.

First: ATTGTACC
Second: CTCACGGC
The “PBM E-score” value of the first is higher: 0.00485 for the first, -0.308 for the second.

Compared with CACAGCTG, GGTACCGA is higher in “PBM E-score” value: -0.163 for the first, 0.103 for the second.

Compared with TACGCCGA, AAATAGGG is lower in “PBM E-score” value: 0.268 for the first, -0.133 for the second.

Compared with GGCACTTA, CAGTTAGG is higher in “PBM E-score” value: -0.218 for the first, -0.201 for the second.

First: AGTCTTAG
Second: CTCGGTGC
The “PBM E-score” value of the first is lower: -0.235 for the first, 0.11 for the second.

Going from GAAAAACC to AAATTTAC, the “PBM E-score” value rises from 0.00531 to 0.169.

First: CGCACTGC
Second: ACGCAGGG
The “PBM E-score” value of the first is lower: -0.0361 for the first, -0.0322 for the second.

First: CGTTTAAG
Second: AAGCGGGG
The “PBM E-score” value of the first is higher: 0.429 for the first, -0.137 for the second.

First: AGCTCAGC
Second: AACCATCG
The “PBM E-score” value of the first is lower: -0.206 for the first, 0.24 for the second.

Compared with TCTCACCA, GCGGATCA is higher in “PBM E-score” value: -0.231 for the first, -0.096 for the second.

Going from CATATGCC to ATTTGCCA, the “PBM E-score” value falls from 0.0035 to -0.242.

Going from AGATAACT to CCACAGCA, the “PBM E-score” value rises from -0.0702 to -0.00618.

First: CATCTTGC
Second: ACCGCAAT
The “PBM E-score” value of the first is lower: -0.0162 for the first, 0.247 for the second.

First: AACACGCG
Second: CAAAAATC
The “PBM E-score” value of the first is higher: 0.154 for the first, -0.163 for the second.

First: ATGCTAAA
Second: AGCGTAAA
The “PBM E-score” value of the first is lower: -0.193 for the first, 0.129 for the second.

First: GGTGCGTA
Second: AAAATTTG
The “PBM E-score” value of the first is higher: 0.0857 for the first, -0.0142 for the second.

Going from AGCGCTCC to GGAGCACA, the “PBM E-score” value falls from -0.0811 to -0.107.

First: ATGGTGTA
Second: CTGAGAGA
The “PBM E-score” value of the first is higher: -0.112 for the first, -0.162 for the second.

Compared with ATCAGTGC, GTAACCGA is higher in “PBM E-score” value: -0.0824 for the first, 0.332 for the second.

Going from ATGAAGTG to ACGGGTAG, the “PBM E-score” value rises from -0.0259 to -0.0219.

Going from CGACAGGC to ACCTCCAG, the “PBM E-score” value falls from -0.0296 to -0.114.
